In patent publication US20180230235A1 (Affibody, published 2018):

B1: Z06944 ABD fusion protein (designed binder, not shown: large carriers; small tags and cut ends)
chain: VDAKYAKEWQWAGVEIAELPNLTQQQRDAFIYKLWDDPSQSSELLSEAKKLNDSQAPK
notes: periplasmic sample
B2: Z06955 ABD fusion protein (designed binder, not shown: large carriers; small tags and cut ends)
chain: B1 chain with A17Q, D28H
notes: periplasmic sample

Biological target: Human CAIX (carbonic anhydrase IX) (human, UniProt Q16790 fragment)
Test: ELISA titration of biotinylated human CAIX on captured Z-ABD fusion

| Binder | Kd [nM] |
| --- | --- |
| B1 | 14 |
| B2 | 7.7 |

Substitutions are numbered along the chain they refer to.
